# Experimental data published in PubChem BioAssay AID1476 (National Center for Advancing Translational Sciences (NCATS), 2009).
# Several values for one entry are separate records, joined by “and”; a condition that tells them apart may be missing. Equal entries are not always repeated. Screen size: about 200,000 compounds; about 4,500 (2.2%) were called active. The shares of active, inactive and inconclusive entries below differ from those in the screen. Calls follow the shape of the dose curve; as a rule, active = well fitted inhibition curve with a large enough effect; inconclusive = small, poorly fitted or top-dose-only effect, or effect the other way; inactive = flat fitted curve, though single readings scatter. Where the call is inconclusive, the potency comes from a doubtful curve fit.
# Biological target: Cruzipain (Trypanosoma cruzi) (UniProt P25779)
# Test: qHTS Assay for Promiscuous and Specific Inhibitors of Cruzain (without detergent); also: nearly all actives have a fitted effect of over 40% in size;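 as to max response, negative = inhibition: plate controls were enzyme without inhibitor for no effect and buffer without enzyme for full effect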
# Details: purified cruzain, Z-FR-AMC fluorescence, no detergent
# In short: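 Purified cruzain at 1.5 nM, pre-incubated 15 min with compound at room temperature in 100 mM sodium acetate pH 5.5, 5 mM DTT, 0.00005% Triton X-100. Reaction started with 2 uM Z-FR-AMC; AMC fluorescence increase over 60 s gives rate.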
# Potency is read from the fitted curve at half-maximal effect; tags tell the direction and shape of the fitted curve.
# Chain of UniProt P25779 (P25779 whole entry, looked up): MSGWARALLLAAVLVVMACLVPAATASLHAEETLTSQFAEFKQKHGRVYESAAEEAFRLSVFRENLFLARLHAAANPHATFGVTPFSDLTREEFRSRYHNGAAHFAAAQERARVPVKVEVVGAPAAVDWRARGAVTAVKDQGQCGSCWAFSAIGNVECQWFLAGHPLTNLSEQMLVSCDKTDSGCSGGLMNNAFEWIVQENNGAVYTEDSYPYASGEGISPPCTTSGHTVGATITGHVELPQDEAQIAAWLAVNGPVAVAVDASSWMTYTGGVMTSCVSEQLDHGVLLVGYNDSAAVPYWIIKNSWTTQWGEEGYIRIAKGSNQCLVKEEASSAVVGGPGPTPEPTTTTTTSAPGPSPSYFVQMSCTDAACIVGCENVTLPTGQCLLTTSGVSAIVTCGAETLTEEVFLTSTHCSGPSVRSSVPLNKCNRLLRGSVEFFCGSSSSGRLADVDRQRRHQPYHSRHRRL
SMILES,Potency,"max response, negative = inhibition"
Cc1nc(Oc2ccccc2C)c2oc3ccccc3c2n1,"inconclusive: 39.8 µM [activator, single point]",–
CCCCCCCCCCCCCC(=O)O,"inconclusive: 39.8 µM [activator, single point]",–
COc1ccc(NC(=O)c2ccccc2NC(=O)COc2ccccc2)cc1,"inconclusive: 3.98 µM [inhibitor, full curve, poor fit]",–
COc1ccc2oc(=O)c(-c3csc(Nc4cccc(O)c4)n3)cc2c1,active: 25.1 µM,–
CCOC(=O)Cc1csc(N/N=C\c2cccc(Br)c2)n1,active: 31.6 µM,–
O=C(NNc1ccc([N+](=O)[O-])cc1)C1C2CCCCC21 (configuration not stated),"inconclusive: 20 µM [inhibitor, single point]",–
COc1ccc(C(=O)Nc2ccc(C(=O)OCC(=O)c3cccc4ccccc34)cc2)cc1,active: 1.58 µM,–
COc1ccc2c(c1)CC(C(=O)NCCN1CCN(c3cccc(Cl)c3)CC1)CO2 (configuration not stated),–,inactive: -4.46%
CC(C)c1nc(C#N)c(NCCCn2ccnc2)o1,"inconclusive: 39.8 µM [inhibitor, single point]",–
Cn1c(CC(=O)NC(C)(C)CO)c(Sc2ccccc2)c2ccccc21,"inconclusive: 39.8 µM [activator, single point]",–
Cc1ccccc1NC(=O)CS(=O)(=O)c1cccc2nsnc12,–,inactive: -0.171%
Cc1sc2nc(SCC(=O)NCc3ccco3)n(Cc3ccccc3)c(=O)c2c1C,–,inactive: 3.86%
COc1ccc(NC(=O)CSc2c3c(nc4ccc(Cl)cc24)CCCC3)cc1Cl,–,inactive: -9.75%
CCNC(=O)c1c(NC(=O)COc2ccc(F)cc2)sc2c1CCCC2,–,inactive: -2.54%
CCc1c(C)sc2c1CCN(C(=O)Nc1ccccc1C(=O)OC)C2c1ccc(F)cc1 (configuration not stated),"inconclusive: 3.98 µM [inhibitor, full curve, poor fit]",–
COc1ccc2nc3oc(C(=O)Nc4cccc(C(F)(F)F)c4)cc3cc2c1,–,inactive: -6.09%
Cc1cc(C)cc(NS(=O)(=O)c2ccc3c(c2)OCC(C(=O)N2CCCC2)O3)c1 (configuration not stated),–,inactive: 20.7%
Nc1c(C(=O)NCc2ccc(F)cc2)c2nc3ccccc3nc2n1CCCN1CCOCC1,"inconclusive: 31.6 µM [activator, single point]",–
CCN(C(=O)Cn1c(SCC(=O)Nc2ccc(OC)cc2)nc2ccccc21)c1cccc(C)c1,"inconclusive: 39.8 µM [activator, single point]",–
CC(C)(C)c1ccc(C(=O)NNc2ncnc3c2cnn3-c2ccccc2)cc1,–,inactive: -3.37%
Cc1cccc(OCc2nnc(NC(=O)c3cccs3)s2)c1,active: 12.6 µM,–
CCOC(=O)CSc1nnc(NC(=O)c2cccc(S(=O)(=O)N3CCCCCC3)c2)s1,"inconclusive: 39.8 µM [inhibitor, single point]",–
CCc1cccc(C)c1NC(=O)CSc1nc2ccc(N3C(=O)c4ccccc4C3=O)cc2s1,"inconclusive: 7.94 µM [inhibitor, single point]",–

SMILES,Potency,"max response, negative = inhibition"
CCc1ccc(S(=O)(=O)NCCc2cn3ccsc3n2)s1,"inconclusive: 1.58 µM [inhibitor, partial curve]",–
Cc1ccc(COc2ccc3oc(-c4ccccc4)c(C(=O)O)c3c2)cc1,active: 20 µM,–
CCCCCCCCCCCCCCCC(=O)C(F)(F)F,–,inactive: 5.69%
CCOc1nc(-c2ccc(C)cc2)ccc1-c1noc(COC)n1,"inconclusive: 39.8 µM [activator, single point]",–
COc1ccc(/C=C/C(=O)N2CCC(c3nc4ccccc4o3)CC2)cc1OC,–,inactive: 1.79%
Cc1ccc(-c2nc3ccccn3c2Nc2ccc3c(c2)OCCO3)s1,"inconclusive: 39.8 µM [inhibitor, single point]",–
O=C(CCn1nc(-c2ccccc2)ccc1=O)N1CCCC1,–,inactive: 0.844%
CC1(C)CC(=O)c2cc(C(=O)Nc3ccc(Br)cc3)c(=O)[nH]c2C1,–,inactive: 0.708%
CCN(C(=O)C1CCC(CNS(=O)(=O)c2cccc3nsnc23)CC1)c1ccccc1 (configuration not stated),–,inactive: 0.0891%
Cc1ccc(S(=O)(=O)N(C(=O)c2ccncc2)c2ccc3oc4c(c3c2)CCCC4)cc1[N+](=O)[O-],active: 12.6 µM,–
O=C(Nc1ccc2oc(-c3cccc(F)c3)nc2c1)c1ccccc1F,"inconclusive: 39.8 µM [inhibitor, single point]",–
Cc1oc2ncnc(N3CCOCC3)c2c1C(=O)N1CCN(c2cccc(C(F)(F)F)c2)CC1,"inconclusive: 39.8 µM [activator, single point]",–
CCC1=C(C[C@H]2NCCc3ccccc32)C[C@@H]2c3cc(OC)c(OC)cc3CCN2C1,–,inactive: 6.03%
Cc1ccc(CN2C(=O)c3ccccc3Sc3ccc(C(=O)NCc4ccco4)cc32)cc1,"inconclusive: 31.6 µM [inhibitor, single point]",–
Cc1ccc(-c2c(C#N)c(N)n(-c3ccc(C)cc3)c(=O)c2C#N)cc1,"inconclusive: 39.8 µM [inhibitor, single point]",–
Cc1ccc(S(=O)(=O)N(CC(O)Cn2c3ccccc3c3ccccc32)c2cccc(C(=O)N(C)C)c2)cc1 (configuration not stated),"inconclusive: 10 µM [activator, partial curve]",–
CCC(CC)c1nnc(NC(=O)c2ccc(S(=O)(=O)N3CCc4ccccc4C3)cc2)s1,"inconclusive: 7.94 µM [inhibitor, single point]",–
O=C(Nc1nnc(CSCc2ccc(Cl)cc2)s1)c1cccc([N+](=O)[O-])c1,"inconclusive: 39.8 µM [inhibitor, single point]",–
COc1cccc(CNC(=O)C(C)n2ncn3cccc3c2=O)c1OC (configuration not stated),"inconclusive: 25.1 µM [activator, single point]",–
CCOc1ccc(-c2cn(-c3ccc(C)cc3)c(SCC(=O)Nc3ccc(C)cc3)n2)cc1,active: 25.1 µM,–
CN1CCc2nc(SCC(=O)Nc3ccc(F)cc3)c(C#N)cc2C1,"inconclusive: 31.6 µM [inhibitor, single point]",–
COC(=O)[C@@]1(Cc2ccc(F)cc2)[C@H]2c3cc(C(=O)N4CCCC4)n(Cc4cc(F)cc5c4OCOC5)c3C[C@H]2CN1C(=O)c1ccccc1,"inconclusive: 25.1 µM [activator, partial curve]",–
O=S(=O)(Nc1nc2ccccc2nc1Nc1ccccc1Br)c1ccccc1,–,inactive: 5.58%

SMILES,Potency,"max response, negative = inhibition"
Cc1oc(-c2ccccc2Cl)nc1CS(=O)CC(=O)NCc1ccc(Cl)cc1 (configuration not stated),"inconclusive: 39.8 µM [activator, single point]",–
COc1cc(-n2c(N)c(C(=O)NCc3ccco3)c3nc4ccccc4nc32)cc(OC)c1OC,"inconclusive: 39.8 µM [activator, single point]",–
COc1ccc(C(O)C2=CCCC2=O)cc1 (configuration not stated),–,inactive: -3.79% and inactive: -15.5%
Cc1ccc(C)c(CN2CCCN(C(=O)Cn3ncc4c3-c3ccccc3OC4)C2)c1,"inconclusive: 31.6 µM [activator, single point]",–
Cc1c(Br)c([N+](=O)[O-])nn1CCCC(=O)Nc1sc2c(c1C(N)=O)CCC(C)C2 (configuration not stated),"inconclusive: 39.8 µM [activator, single point]",–
Cc1ccc(S(=O)(=O)N2CCc3cc(C(=O)Nc4ccc(C(F)(F)F)cc4)ccc32)cc1,"inconclusive: 20 µM [inhibitor, single point]",–
O=C(Cn1ncc2ccsc2c1=O)N1CCN(c2ccc(F)cc2)CC1,–,inactive: -10.5%
COC(=O)c1ccc(N2CCC(c3cc(-c4ccc(OC)cc4)n[nH]3)CC2)c([N+](=O)[O-])c1,"inconclusive: 39.8 µM [inhibitor, single point]",–
CCOC(=O)N1CCN(C(=O)c2ccc(C)c(S(=O)(=O)Nc3cccc(C)c3C)c2)CC1,"inconclusive: 25.1 µM [activator, single point]",–
Cc1ccc2oc3c(c(=O)c2c1)C(c1ccccc1F)N(CCCN(C)C)C3=O (configuration not stated),–,inactive: 8.23%
O=C(c1cc2c(ccc3ccccc32)oc1=O)N1CCN(CCO)CC1,"inconclusive: 25.1 µM [inhibitor, single point]",–
COc1ccccc1-n1c(SCC(=O)Nc2nnc(C)s2)nc2c(c1=O)SCC2,–,inactive: -5.43%
COc1ccc(C(=O)c2sc3nc(C)cc(-c4cccs4)c3c2N)cc1OC,"inconclusive: 39.8 µM [activator, single point]",–
CCc1ccc2[nH]c(=O)c(CN(Cc3ccccc3)Cc3nnnn3Cc3ccco3)cc2c1,–,inactive: 5.92%
CC1C(=O)N(c2ccc(S(=O)(=O)N(C)C)cc2)C1(/C=C/c1ccccc1)C(=O)NC1CCCC1 (configuration not stated),–,inactive: 2.74%
CCOC(=O)N1CCN(C(=O)c2c(C)nn(-c3cccc(C)c3)c2-n2cccc2)CC1,"inconclusive: 25.1 µM [activator, partial curve]",–
Cc1ccc(S(=O)(=O)c2[nH]c(-c3ccccc3)nc2SCC(N)=O)cc1,–,inactive: -5.51%
COc1cccc(NC(=O)C(Sc2nnc(Nc3ccccc3C)s2)c2ccccc2)c1 (configuration not stated),"inconclusive: 39.8 µM [inhibitor, single point]",–
O=C(CSc1nnc(Cc2ccccc2)n1-c1cccc(Cl)c1)NNC(=O)Cc1ccccc1,"inconclusive: 39.8 µM [activator, single point]",–
Cc1ccc(S(=O)(=O)OCCc2ccccc2)cc1,–,inactive: -2.4%
Cc1cccc(Oc2nc(CN3CCOCC3)nc3sc4c(c23)CCCC4)c1,"inconclusive: 39.8 µM [activator, single point]",–
